# From article PMC7819943, “Rice protein-binding microarrays: a tool to detect cis-acting elements near promoter regions in rice”
# The other results are listed elsewhere or left out.
# Target: T1, OsWOX13 (Oryza sativa, UniProt Q5QMM3 1-267)
# T1 sequence: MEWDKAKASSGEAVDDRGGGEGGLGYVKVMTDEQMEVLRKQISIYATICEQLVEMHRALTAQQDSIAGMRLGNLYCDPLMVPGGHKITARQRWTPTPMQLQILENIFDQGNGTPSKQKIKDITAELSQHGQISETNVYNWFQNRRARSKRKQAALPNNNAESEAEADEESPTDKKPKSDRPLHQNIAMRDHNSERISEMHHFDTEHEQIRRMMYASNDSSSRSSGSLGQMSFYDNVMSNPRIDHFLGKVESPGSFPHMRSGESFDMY
# Test: protein-binding microarray (RPBM); PBS, 2% BSA, 51.3 ng/ul salmon testes DNA, 50 uM zinc acetate, 200 nM TF, 25 C, 1 h; high values mean tight binding
# Settings: protein: recombinant; tags: N-terminal polyhistidine and DsRed monomer fusion (pET32a); label: CyDye5-dUTP incorporated in the synthesized complementary strand; 3' TTTTT single-stranded linker to array surface; dsDNA, one strand shown
# In short: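 A custom Agilent array was converted to double-stranded form by primer extension with Cy5-dUTP and blocked with 2% BSA. Protein at 200 nM in PBS with 2% BSA, salmon testes DNA and 50 µM zinc acetate was applied for 1 h at 25 °C, followed by washing. The proteins were polyhistidine–DsRed N-terminal fusions of transcription factors, expressed in E. coli BL21-CodonPlus and Ni–NTA-purified. The binding signal is per-feature fluorescence intensity (arbitrary units) from an Axon 4000B scanner.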
row,Sequence,binding signal
1,TTGACCAATTAATTATAATCAAAGCAAAACGTGAGAGTGCCGGAGTCACCTAGTGCAG,29800 fluorescence intensity (a.u.)
2,TGCCGCTAATCAGTGACGCAGAGTCACAAATGAACACCATCGGAGTCACCTAGTGCAG,8580 fluorescence intensity (a.u.)
3,AAGATAAAATGTATGATTGTATGCCTAATTTGAATAGTGGCGGAGTCACCTAGTGCAG,15900 fluorescence intensity (a.u.)
4,CAAAATCTGGAAATTACAGATTTCAGTTAACCTACTTTGCCGGAGTCACCTAGTGCAG,5910 fluorescence intensity (a.u.)
5,GAGCAGATGATTAGTGAAGGTGTAACCCCTAACATCGTTACGGAGTCACCTAGTGCAG,12900 fluorescence intensity (a.u.)
6,CTTCAATAATTAATTTATATTGTACTAATATGTTTGTAAACGGAGTCACCTAGTGCAG,17900 fluorescence intensity (a.u.)
7,AATTTACAAATGTAATTTTAGTTATATATGACTGTAATTTCGGAGTCACCTAGTGCAG,4150 fluorescence intensity (a.u.)
8,TGCATAGCCATCAATTTACATTATCTTAAATCTCATATGGCGGAGTCACCTAGTGCAG,4740 fluorescence intensity (a.u.)
9,TAATTAATTAAGCCTATCACCGAAGCAAATTAGAATTTTACGGAGTCACCTAGTGCAG,18600 fluorescence intensity (a.u.)
10,CACATGATTGTGTTTTCAACTCTGAACCTTTTCTTGTGTTCGGAGTCACCTAGTGCAG,35000 fluorescence intensity (a.u.)
11,TCGTTGATTTGGTGTCCACGGCGAGTCGGAAGCGACGGCGCGGAGTCACCTAGTGCAG,13500 fluorescence intensity (a.u.)
12,TCAAATTAACTGGCACGGTCATACACTTAAAGGCAAGCTTCGGAGTCACCTAGTGCAG,28500 fluorescence intensity (a.u.)
13,GTCATTAACGTCAAATCATTCTCTGCTAATAATGCAAGGCCGGAGTCACCTAGTGCAG,6720 fluorescence intensity (a.u.)
14,GATTAAATTTTGATATGAGCGGTTCTAATCCATGAGACAACGGAGTCACCTAGTGCAG,6140 fluorescence intensity (a.u.)
15,ATGATTGGAGAGGAGATGGGCAAGAAAGTGGCGAGACCAACGGAGTCACCTAGTGCAG,21600 fluorescence intensity (a.u.)
16,TACCATTAAATTTATTGCAATTAAATCTTCAAAATAAGACCGGAGTCACCTAGTGCAG,8580 fluorescence intensity (a.u.)
17,GGCTAATAGTAGGTTGATTAGTCCTTATTGTGCTTGCCCTCGGAGTCACCTAGTGCAG,28500 fluorescence intensity (a.u.)
18,ATTAGATTAAACGAGGCGAGAGAGCGTGTCCCACACCGGACGGAGTCACCTAGTGCAG,4110 fluorescence intensity (a.u.)
19,AAAACAGAAAATAGCCAGTCAACCAAACAGTTGTCTTGACCGGAGTCACCTAGTGCAG,6230 fluorescence intensity (a.u.)
20,ACTGTAATTATACTGGATCGAGGAAGAACATTGATAATCACGGAGTCACCTAGTGCAG,10200 fluorescence intensity (a.u.)
21,GATTGCATCATCGCCCTAAATTGAAACAGCGATGATATGACGGAGTCACCTAGTGCAG,3620 fluorescence intensity (a.u.)

row,Sequence,binding signal
1,GCTAATCATGGATTAATTAGGCTCATTAGATTCGTCTCGTCGGAGTCACCTAGTGCAG,41100 fluorescence intensity (a.u.)
2,CGTTAACGTTAAATGGTATTTTCGCAGACCTTGATAGTGACGGAGTCACCTAGTGCAG,7400 fluorescence intensity (a.u.)
3,CCAATAATTTTGAGACTCACAATGCGAAGGTTGTCCAAGCCGGAGTCACCTAGTGCAG,7230 fluorescence intensity (a.u.)
4,ATTGACTATATTTATCATTTAAACTATTCAATGTCAATATCGGAGTCACCTAGTGCAG,6180 fluorescence intensity (a.u.)
5,ACGTTGATCAATTAATTAATTTAAGTAAGATCGATCAAGCCGGAGTCACCTAGTGCAG,48500 fluorescence intensity (a.u.)
6,ACCTAATTAGATCAGCACCATTTCACCACCCCGGATCGACCGGAGTCACCTAGTGCAG,25600 fluorescence intensity (a.u.)
7,ACAAATTAATAAAATATTACGGTAACACAAAACCAAGGGGCGGAGTCACCTAGTGCAG,12900 fluorescence intensity (a.u.)
8,TTGATCTGATTAATTAACTGATCAGACGGGTCGACGGGACCGGAGTCACCTAGTGCAG,55700 fluorescence intensity (a.u.)
9,ATTAGATTACCTGATAGAGGCATTATTTTCCAATGCTATTCGGAGTCACCTAGTGCAG,16700 fluorescence intensity (a.u.)
10,TTTTAATTTGGTAGGATCGAAACATGGTAAAATAATGGATCGGAGTCACCTAGTGCAG,6590 fluorescence intensity (a.u.)
11,GAAACGTGATTCAAATGATTATTCAGGTACAATAATCTTACGGAGTCACCTAGTGCAG,8070 fluorescence intensity (a.u.)
12,ATCACATAAATTTAGAATACAATCAAAATTACCATCTCTCCGGAGTCACCTAGTGCAG,5110 fluorescence intensity (a.u.)
13,CCGCCGTCGCGTGGGAGGGGAGGGGAGGGGATGGAAGGAGCGGAGTCACCTAGTGCAG,3930 fluorescence intensity (a.u.)
14,AATTAATTAGTTGCATGAAATCTTGACATCTGCAGGTTGTCGGAGTCACCTAGTGCAG,43100 fluorescence intensity (a.u.)
15,ATTAAATTAAGCATCAGTGGACAGTGTATGCGAGGCCGTACGGAGTCACCTAGTGCAG,11100 fluorescence intensity (a.u.)
16,CATTAGATTTACATTTTGGTTTTGGATCGATTAATTCATGCGGAGTCACCTAGTGCAG,10900 fluorescence intensity (a.u.)
17,ATAATGGATTGCTTGTTCCAGCACTGAATGTGCTGCCAAGCGGAGTCACCTAGTGCAG,6550 fluorescence intensity (a.u.)
18,CCTGATTGGTTGTATTGCTTGAAGTAGACTATTGAGATTGCGGAGTCACCTAGTGCAG,60200 fluorescence intensity (a.u.)
19,TTTAACAGGCCAAAATCTTCTAGAATACGAATTATGCTACCGGAGTCACCTAGTGCAG,6410 fluorescence intensity (a.u.)
20,GACTCTTCTAATCAAGTGATCAAATGAGCCTAATCCAACTCGGAGTCACCTAGTGCAG,6630 fluorescence intensity (a.u.)
21,TCGGTTCTTAATTGACCCAAGCAAACACTCTCTCTATAGACGGAGTCACCTAGTGCAG,12000 fluorescence intensity (a.u.)
